Data as given in PubChem BioAssay (Tox21).
Values joined by “and” are separate entries in the source; they are usually repeats but may differ in a detail not shown here. Equal values may be shown once. This list was built around the results that the source calls inconclusive (neither active nor inactive); the mix of calls is not that of the screen. Where the call is inconclusive, the potency comes from a doubtful curve fit. Active and inactive are the calls of the source. Calls follow the shape of the dose curve; as a rule, active = well fitted cell-killing curve with a large enough effect in the repeat runs; inconclusive = weak or mixed curves, or effect the other way; inactive = flat fitted curve, though single readings scatter.

test: qHTS RealTime-Glo MT Cell Viability Assay in HEK293 cells - 32 hour (AID 1224868); conditions: RealTime-Glo luminescence; series mostly up to 76.8 µM
Outline: (§1)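 HEK293 cells were seeded at 600 cells/well together with NanoLuc luciferase and cell-permeant prosubstrate, preincubated 5 h at 37 C/5% CO2, then given compound in DMSO by pintool. Luminescence from viable-cell prosubstrate reduction was read repeatedly over 40 h.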
Also: nearly all actives have a fitted effect of over 50% in size.
Potency is read from the fitted curve at half-maximal effect; tags tell the direction and shape of the fitted curve.

SMILES | Potency
COCC(C)OC(C)=O (stereo not given) | inactive
CC(C)OC(=O)C(C(=O)OC(C)C)=C1SC=CS1 | inconclusive: 19 µM [cytotoxic, partial curve]
CC[N+](C)(CC)CC | inactive
O=C1Nc2ccccc2C1=O | inconclusive: 21.7 µM [rising, partial curve]
CC1=C(C/C=C(\C)CCC[C@H](C)CCC[C@H](C)CCCC(C)C)C(=O)c2ccccc2C1=O | inconclusive: 21.3 µM [rising, partial curve]
O=C1NC(=O)C(c2ccccc2)(c2ccccc2)N1 | inactive and inconclusive: 54.9 µM [cytotoxic, single point] and inconclusive: 24.5 µM [cytotoxic, partial curve]
c1ccc2c(c1)[nH]c1ccccc12 | inconclusive: 27.1 µM [cytotoxic, partial curve]
Clc1ccc2c(c1)Nc1ccccc1S2 | inactive
CC(C)(C)c1cc(CCC(=O)NCCCCCCNC(=O)CCc2cc(C(C)(C)C)c(O)c(C(C)(C)C)c2)cc(C(C)(C)C)c1O | inconclusive: 43.6 µM [cytotoxic, partial curve, poor fit]

test: qHTS RealTime-Glo MT Cell Viability Assay in HEK293 cells - 16 hour (AID 1224872); conditions: RealTime-Glo luminescence; series mostly up to 76.8 µM
Outline: as §1

SMILES | Potency
C=C(C)C(=O)OC | inactive
CC(C)OC(=O)C(C(=O)OC(C)C)=C1SC=CS1 | inconclusive: 9.52 µM [cytotoxic, partial curve]
O=C1Nc2ccccc2C1=O | inconclusive: 24.3 µM [rising, partial curve]
CC1=C(C/C=C(\C)CCC[C@H](C)CCC[C@H](C)CCCC(C)C)C(=O)c2ccccc2C1=O | inconclusive: 7.56 µM [rising, partial curve]
O=C1NC(=O)C(c2ccccc2)(c2ccccc2)N1 | inconclusive: 54.9 µM [cytotoxic, partial curve, poor fit]
O=C(O)C(=O)Nc1cccc(-c2nn[nH]n2)c1 | inactive
Clc1ccc2c(c1)Nc1ccccc1S2 | inactive
CC(C)(C)c1cc(CCC(=O)NCCCCCCNC(=O)CCc2cc(C(C)(C)C)c(O)c(C(C)(C)C)c2)cc(C(C)(C)C)c1O | inconclusive: 38.9 µM [cytotoxic, partial curve]
CN1CN(C)CN(C)C1 | inactive
Nc1ccc(C(=O)N2CC3CC(CN(Cc4ccccc4)C3)C2)cc1 | inactive
C/C=C1\C(=O)C[C@H]2[C@@H]3CCC4=CC(=O)CC[C@]4(C)[C@H]3CC[C@]12C | inconclusive: 24.1 µM [cytotoxic, single point]
